The campaign covered roughly 310,000 compounds. About 14,000 (4.5%) showed an effect of 50% or more. The effect is printed as a negative number. The list shows a part of the results.
Target: human ether-à-go-go-related gene (hERG) potassium channel (human, UniProt Q12809)
Test: primary screen, population patch clamp on CHO cells stably expressing hERG
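Further: peak tail current of the secondary pulse compared with the same well before compound.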

Chain of human ether-à-go-go-related gene (hERG) potassium channel (Q12809 whole entry, looked up): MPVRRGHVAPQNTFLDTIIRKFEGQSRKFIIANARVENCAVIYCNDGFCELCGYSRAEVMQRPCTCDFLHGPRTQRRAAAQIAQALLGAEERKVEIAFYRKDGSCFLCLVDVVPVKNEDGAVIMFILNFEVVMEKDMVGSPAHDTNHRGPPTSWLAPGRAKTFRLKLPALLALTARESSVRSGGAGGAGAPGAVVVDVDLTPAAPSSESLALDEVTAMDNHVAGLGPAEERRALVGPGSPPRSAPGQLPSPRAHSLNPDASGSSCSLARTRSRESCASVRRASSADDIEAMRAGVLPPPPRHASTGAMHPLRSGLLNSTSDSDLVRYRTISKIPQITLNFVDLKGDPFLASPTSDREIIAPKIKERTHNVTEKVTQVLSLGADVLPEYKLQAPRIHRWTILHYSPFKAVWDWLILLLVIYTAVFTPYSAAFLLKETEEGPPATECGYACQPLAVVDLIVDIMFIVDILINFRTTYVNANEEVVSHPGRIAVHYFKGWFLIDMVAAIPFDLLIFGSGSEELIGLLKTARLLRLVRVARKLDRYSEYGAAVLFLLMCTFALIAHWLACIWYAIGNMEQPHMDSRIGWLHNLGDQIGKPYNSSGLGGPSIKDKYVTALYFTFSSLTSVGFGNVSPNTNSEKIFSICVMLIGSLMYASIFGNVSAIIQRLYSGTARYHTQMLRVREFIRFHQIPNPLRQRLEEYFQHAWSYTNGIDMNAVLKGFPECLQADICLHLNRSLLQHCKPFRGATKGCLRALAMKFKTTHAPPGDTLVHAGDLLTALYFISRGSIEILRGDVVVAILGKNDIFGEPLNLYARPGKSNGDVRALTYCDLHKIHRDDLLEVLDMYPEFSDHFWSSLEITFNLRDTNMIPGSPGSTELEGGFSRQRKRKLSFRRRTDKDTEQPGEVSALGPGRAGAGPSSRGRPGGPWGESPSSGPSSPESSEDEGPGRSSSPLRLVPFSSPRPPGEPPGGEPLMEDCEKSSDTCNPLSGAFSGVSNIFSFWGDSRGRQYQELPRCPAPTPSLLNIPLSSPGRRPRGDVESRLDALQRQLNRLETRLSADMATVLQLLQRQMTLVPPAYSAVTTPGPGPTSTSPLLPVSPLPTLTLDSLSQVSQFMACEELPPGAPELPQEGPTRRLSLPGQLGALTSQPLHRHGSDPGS

In order of falling “hERG current change (%, negative = inhibition) at 10uM” value:
1. CC(NC(=O)Cc1cccs1)c1ccccc1 (stereo not shown)  24.5%
2. O=C(NCc1ccncc1)C(=O)N/N=C/c1cccnc1  20%
3. COc1cc(SC)ccc1C(=O)Nc1ncc(C)s1  19.6%
4. CC(CC(=O)Nc1ccccc1)NCCCN1CCCC1=O.O=C(O)C(=O)O (stereo not shown)  19.4%
5. Cc1cccc(N/C(N)=N/c2nc(C)cc(=O)[nH]2)c1  19.3%
6. CC(C)c1nc(SCC(=O)c2ccc(F)cc2)c2ccccc2n1  19.2%
7. Cc1cc(C)nc(NC(=O)Cc2ccc(Br)cc2)n1  18.9%
8. O=c1c2ccccc2nc(-c2ccccc2)n1-c1ccccn1  18.5%
9. O=C(O)CCc1ncc(C(F)(F)F)cc1Cl  17.1%
10. CN(C(=S)Nc1cccnc1)c1ccc(O)cc1  17.1%
11. Cc1ccccc1NC(=O)CCCNC(=O)c1ccc(Cl)cc1  16.9%
12. COc1ccc(C(CC(=O)O)NS(=O)(=O)c2ccc3c(c2)N(C(C)=O)CC(C)O3)cc1 (stereo not shown)  16.8%
13. Cc1ccc(NC(=O)N2CCc3ccccc3C2)cc1C  15.2%
14. CCOC(=O)CSc1nc2sc3c(c2c(=O)n1-c1ccccc1)CCN(C)C3  12.6%
15. CCC(=O)N1CCN=C1SCc1ccccc1  11.8%
16. COC(=O)Nc1nc2ccc(-c3n[nH]c(=O)c4ccccc34)cc2[nH]1  11.4%
17. Br.CCOc1ccc(N=c2scc(-c3ccccc3)n2CCO)cc1  10.8%
18. COc1ccc(-c2cnc(N)nc2-c2ccc(OCc3ccccc3)cc2O)cc1  9.83%
19. COC(=O)c1ccc(NC(=O)CN2C(=O)CCC2=O)cc1  9.66%
20. O=[N+]([O-])c1cc(-c2csc(NCCc3nc4cc(Cl)c(N5CCCCC5)cc4n3CCCO)n2)ccc1Cl  9.64%
21. O=C(NCc1ccccc1Cl)C1CCC(=O)N1Cc1ccc(F)cc1 (stereo not shown)  9.39%
22. CSCCC(NS(=O)(=O)c1cccc(C(F)(F)F)c1)C(=O)N(C)CCOc1ccc(Cl)cc1 (stereo not shown)  9.27%
23. O=C(Nc1ccc(F)cc1)c1ccc2[nH]c(=O)c(=O)[nH]c2c1  9.25%
24. O=C(Nc1ccncc1Cl)c1ccncc1  8.56%
25. CCOC(=O)CC(=O)CSc1nc2nc(C)cc(C)n2n1  8.34%
26. Cc1onc(-c2ccccc2)c1C(=O)NCc1ccco1  7.93%
27. O=C(NCc1cccc(Cl)c1)c1ccc2c(c1)OCCO2  7.21%
28. COc1ccc(CN2C(=O)[C@H]3Cc4c([nH]c5ccccc45)C(C)(C)N3C2=O)cc1  7%
29. CCc1nc(N2CCCCC2)c2oc3ccccc3c2n1.Cl  6.57%
30. CN1CCN(CCC(=O)N/N=C/C=C2\N(C)c3ccccc3C2(C)C)CC1  6.4%
31. CC(NS(C)(=O)=O)C(c1cccs1)N1CCN(c2ccccc2F)CC1 (stereo not shown)  6.04%
32. C[C@H]1CC[C@]2(O[C@@H](CCO)C[C@@H](O)[C@@H]2O)O1  5.54%
33. CSc1cccc(CNC(=O)C2CCC(=O)N(CCc3ccccn3)C2)c1 (stereo not shown)  4.83%
34. COc1ccc2c(c1)C(C)=CC(C)(C)N2S(=O)(=O)c1ccc(Br)cc1  4.42%
35. COC(=O)c1cc(-c2ccccc2)n[nH]1  4.06%
36. CCOC(=O)CCCn1c(C)nc(=O)c(-c2ccccc2)c1C  3.92%
37. COc1ccc(/C=N/NC(=O)CSCC(=O)Nc2ccccc2)cc1OC  3.9%
38. COc1cccc(/C=N/Nc2ncnc(N)c2[N+](=O)[O-])c1OC  3.62%
39. CCOc1ccc(Nc2ncnc3c2nnn3Cc2ccccc2)cc1  3.35%
40. O=C1C(C2=NC(C(=O)O)C3C(=O)N(c4ccc(Cl)cc4)C(=O)C23)=C(O)c2ccccc21 (stereo not shown)  2.54%
41. O=C1c2oc3ccc(Cl)cc3c(=O)c2C(c2ccco2)N1CCN1CCOCC1 (stereo not shown)  2.36%
42. COC(=O)c1cccc(N(C(=O)c2ccco2)C(C(=O)NC2CCCC2)c2ccc(N3CCOCC3)cc2)c1 (stereo not shown)  2.19%
43. Cc1cccc(OCC(=O)NNC(=O)CSc2ncc(C#N)c(N)n2)c1  2.11%
44. O=c1oc2cc(O)ccc2c2ccccc12  2.06%
45. CC(=O)C1=C(C)NC(SCC(=O)c2ccc(Cl)cc2Cl)=C(C#N)C1c1ccco1 (stereo not shown)  1.79%
46. COc1cc(/C=N/Nc2nc(Nc3ccc(C)cc3)nc(-n3nc(C)cc3C)n2)cc(OC)c1OC  1.26%
47. O=C(C1=C[C@@H](C2CC2)C[C@@H](OCCCCO)O1)N1CCN(Cc2ccccc2)CC1  0.7%
48. Fc1ccc(-c2nc3n(n2)Cc2ccccc2-3)cc1  0.598%
49. CCCNC(=O)c1sc2c(c1C(=O)Nc1ccccn1)CCCC2  0.34%
50. Br.CCCc1cc(-c2nc(-c3ccc(Cl)cc3)cs2)ccn1  -0.513%
51. CCOC(=O)c1c(C)[nH]c(C(=O)CSc2nc3ccccc3o2)c1C  -1.09%
52. Cc1ccc(N2CC(C(=O)OCC(=O)C(C)(C)C)CC2=O)cc1C (stereo not shown)  -1.57%
53. O=C(C1CC(=O)N(C2CCCC2)C1)N1CCN(c2ccccc2F)CC1 (stereo not shown)  -2.24%
54. Cc1cccc(NC(=O)CCc2c(C)nc3ncnn3c2C)n1  -2.61%
55. CCN(CC(=O)Nc1ccc(NC(C)=O)cc1)CC(=O)Nc1cc(C)on1  -3.38%
56. COC(=O)c1ccc(NC(=O)CN(c2ccc(OC)cc2)S(C)(=O)=O)cc1  -3.66%
57. O=C1c2ccccc2S(=O)(=O)c2cc(N3CCC(C(=O)N4CCCCC4)CC3)ccc21  -3.7%
58. CCN1CCN(Cc2c(O)ccc3c(=O)c(-c4ccccc4OC)coc23)CC1  -4.86%
59. COc1ccccc1NS(=O)(=O)c1cc(NC(=O)c2ccncc2)ccc1N1CCOCC1  -5.62%
60. CC(OC(=O)c1ccc(Cl)c(S(=O)(=O)N2CCCC2)c1)C(=O)NC1CCCCC1C (stereo not shown)  -6.43%
61. C=CCNC(=O)c1ccccc1NS(=O)(=O)c1ccc(SC)cc1  -6.5%
62. CC(C)(C)c1ccc(C(=O)Nc2ccc(CC(=O)O)cc2)o1  -6.81%
63. CCn1nc(C)c(CN2CCCC(CO)(Cc3ccccc3)C2)c1C (stereo not shown)  -7.7%
64. Cc1ccccc1C(=O)NC(=S)NCCc1ccccc1  -7.87%
65. CCCCN(C)CCNC(=O)Cn1c(=O)sc2ccccc21  -8.43%
66. Cc1ccc(-n2ncc3c2CC(C)(C)CC3NC(=O)CN2CCCC2=O)cc1 (stereo not shown)  -8.66%
67. ClC(=C\c1ccccc1)/C=N/N1CCN(c2ccccn2)CC1  -8.89%
68. Cc1ccc(C(=O)NCc2ccco2)cc1[N+](=O)[O-]  -9.12%
69. CCOC(=O)c1[nH]c2cc3c(cc2c1NC(=O)CN1CCCC1)OCO3  -10.5%
70. COC(=O)CC1COc2ccccc2N1C(=O)c1ccc(OC)cc1 (stereo not shown)  -11.6%
71. COc1ccccc1CNC(=O)[C@@H]1CCCN1S(=O)(=O)c1ccc(Cl)cc1  -11.9%
72. CCNC(=S)N/N=C(\C)c1ccc2ccccc2c1OC(F)F  -13.2%
73. COc1ccc(CC(=O)N2CCN(c3cccc(C)c3C)CC2)cc1  -13.2%
74. CC(=O)OCC(=O)[C@@]1(O)CC[C@H]2[C@@H]3CCC4=CC(=O)CC[C@]4(C)[C@H]3C(=O)C[C@@]21C  -14.6%
75. O=C(CCc1nnc(CCCCc2ccccc2)o1)NCCCc1cccnc1  -14.8%
76. CC(=O)c1c(C)[nH]c(C(=O)OCC(=O)N2CCN(S(=O)(=O)c3ccc(C)cc3C)CC2)c1C  -15.9%
77. CCc1noc(C)c1C(=O)OC(C)C(=O)Nc1ccc(Cl)cn1 (stereo not shown)  -17.8%
78. Cl.NC(N)=NC(N)=Nc1ccc(SC(F)(F)F)cc1  -21.3%
79. CC(C)COC(=O)C1C(=O)CC(C)(O)C(C(=O)OCC(C)C)C1c1cccnc1 (stereo not shown)  -23.9%
80. O=S(=O)(c1ccc(F)cc1)c1nc(-c2ccccc2)oc1N1CCOCC1  -24.5%
81. COc1ccccc1OCC(=O)Nc1ccc(N2CCCCC2)cc1  -29%
82. CC(=O)c1ccc(-n2cc(-c3ccc(C(C)(C)C)cc3)[n+]3c2SCCC3)cc1.[Br-]  -30.1%
83. CNC(=O)/C(C#N)=C/c1c(N2CCN(c3ccccc3)CC2)nc2c(C)cccn2c1=O  -31.6%
84. O=C(c1ccc([N+](=O)[O-])cc1)N1CCN(c2ncc(Br)cn2)CC1  -32%
85. Cc1ccc(-c2nn(C)c(=O)c3ccccc23)cc1CNC(=O)c1ccco1  -36.7%
86. O=C(Cn1ccc([N+](=O)[O-])n1)Nc1nc2ccccc2s1  -45.8%
87. COc1cccc2c1OCC(CN1CCN(Cc3ccccc3)C(CCO)C1)=C2 (stereo not shown)  -47.6%
88. CCOC(=O)c1c(NC(=O)Cc2ccccc2)sc2c1CCN(CC)C2.Cl  -65.3%

From publication PMC4336329 (PLoS ONE, 2015)
